# Screen size: about 220,000 compounds; about 16,000 (7.3%) were called active. The inconclusive results got no clear call from the source; some entries with a clear call stand among them for comparison. Calls follow the shape of the dose curve; as a rule, active = well fitted inhibition curve with a large enough effect (not every such curve was filed as active); inconclusive = small, poorly fitted or top-dose-only effect, or another doubt; inactive = no such curve, though single readings can be large or run the other way. No potency is given beside an inconclusive call; the fits are too rough.
# Molecular target: Aldehyde dehydrogenase 1A1 (Homo sapiens) (UniProt P00352)
# Chain of UniProt P00352 (P00352 whole entry, looked up): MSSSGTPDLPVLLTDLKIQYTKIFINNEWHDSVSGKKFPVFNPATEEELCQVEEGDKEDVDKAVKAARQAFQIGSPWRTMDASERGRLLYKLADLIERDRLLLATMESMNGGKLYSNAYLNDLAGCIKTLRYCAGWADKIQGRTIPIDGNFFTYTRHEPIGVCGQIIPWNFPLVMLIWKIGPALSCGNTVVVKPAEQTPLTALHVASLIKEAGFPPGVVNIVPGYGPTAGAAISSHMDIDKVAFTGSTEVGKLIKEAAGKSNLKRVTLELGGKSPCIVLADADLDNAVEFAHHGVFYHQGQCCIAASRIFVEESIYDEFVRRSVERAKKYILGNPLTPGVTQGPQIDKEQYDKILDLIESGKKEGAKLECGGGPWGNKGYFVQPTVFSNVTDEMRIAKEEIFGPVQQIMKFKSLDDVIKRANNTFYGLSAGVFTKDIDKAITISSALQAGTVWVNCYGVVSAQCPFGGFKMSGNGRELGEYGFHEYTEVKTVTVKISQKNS
# Assay: qHTS Assay for Inhibitors of Aldehyde Dehydrogenase 1 (ALDH1A1)
# Settings: Purified ALDH1A1, NADH fluorescence, propionaldehyde substrate; series mostly up to 75.3 µM
# Potency is read from the fitted curve at half-maximal effect; tags tell the direction and shape of the fitted curve.
row,SMILES,Potency
1,CCOC(=O)c1ccc(NC=C2C(=O)OC3(CCCCC3)OC2=O)cc1,"inconclusive [inhibitor, full curve]"
2,CNc1sc(C(=O)c2cccs2)c(N)c1-c1nc2ccccc2s1,active: 1.78 µM
3,CC(C)NC(=O)C(=O)c1cn(C)c2ccccc12,"inconclusive [inhibitor, single point]"
4,COC(CNC(=O)c1cc(C)nn1-c1ccccc1)OC,"inconclusive [inhibitor, single point]"
5,CCOC(=O)N1CCN(C(=O)CN(c2cccc(C)c2)S(=O)(=O)c2ccc(C)cc2)CC1,"inconclusive [inhibitor, single point]"
6,CCN(CC)C(=O)CSc1ncnc2c(-c3cccs3)nsc12,"inconclusive [inhibitor, partial curve]"
7,CCOC(=O)c1ccc(NC(=S)N2CCSC2c2ccc(Cl)cc2)cc1 (stereo not given),inactive
8,CN(C)C(CNc1ccc([N+](=O)[O-])cc1C#N)c1ccccc1 (stereo not given),inactive
9,COc1ccc(N/N=C(/Oc2ccc([N+](=O)[O-])cc2)C(C)=O)cc1,"inconclusive [inhibitor, single point]"
10,COc1ccc(C(C)=O)cc1COC(=O)c1cnc(C)cn1,inactive
11,CCC(C)c1ccc(C2C3=C(Nc4nc(N)[nH]c(=O)c42)c2ccccc2C3=O)cc1 (stereo not given),inactive
12,CCN(CC)c1ccc2c(Nc3ccccc3)c(C=O)c(=O)oc2c1,active: 1.58 µM
13,CCNc1ncc2nc(-c3cc(F)cc(F)c3)c(=O)n(C)c2n1,"inconclusive [inhibitor, partial curve]"
14,Cc1occc1C(=O)NCc1cccs1,inactive
15,CC1CCCCN1S(=O)(=O)c1cnc(Cl)c(Br)c1 (stereo not given),active: 2.51 µM
16,COCCCNc1oc(-c2ccccc2OC)nc1C#N,"inconclusive [inhibitor, partial curve]"
17,O=C(c1cc([N+](=O)[O-])cc([N+](=O)[O-])c1)N1CCCc2ccccc21,inactive
18,CCc1nc2ccccc2c2nc3ccccc3n12,"inconclusive [inhibitor, single point]"
19,CSc1ccc(S(=O)(=O)Nc2cccc(F)c2)cc1,"inconclusive [inhibitor, single point]"
20,O=C(N/N=C/c1ccc([N+](=O)[O-])s1)c1ccncc1,"inconclusive [inhibitor, single point]"
21,Cc1ccc(-c2nc(N)sc2C)cc1,inactive
22,CC(C)c1[nH]nc2c1C(c1cccs1)C(C#N)=C(N)O2 (stereo not given),"inconclusive [inhibitor, single point]"
23,CC(C)(C)[C@H]1C=C(C(=O)N2CCN(Cc3ccccc3)CC2)O[C@@H](OCCCCO)C1,"inconclusive [inhibitor, single point]"
24,COc1cccc(NC(=O)Cc2nnc(SCC(=O)c3ccccc3)n2C)c1,active: 8.91 µM
25,COc1ccc(S(=O)(=O)Nc2ccc(N3CCOCC3)cc2)cc1[N+](=O)[O-],active: 12.6 µM

row,SMILES,Potency
1,O=C(Cc1ccc(-c2ccccc2)cc1)NC(c1ccccc1)c1ccccc1,active: 10 µM
2,COC(=O)c1[nH]c2ccccc2c1NC(=O)CN1CCN(Cc2ccc3c(c2)OCO3)CC1,"inconclusive [inhibitor, partial curve]"
3,O=S(=O)(NC(=S)NC1CCCCC1)c1ccccc1,active: 22.4 µM
4,CC(=O)Nc1ccc(S(=O)(=O)N/N=C/c2ccc(C)s2)cc1,"inconclusive [inhibitor, single point]"
5,NNC(=O)CNc1ccccc1Cl,"inconclusive [inhibitor, single point]"
6,Cc1ccc2[nH]c(=O)c(CN(Cc3cccs3)S(=O)(=O)c3ccc4c(c3)OCCO4)cc2c1,active: 25.1 µM
7,COc1cc(SC)ccc1C(=O)N(C)Cc1ccccc1,inactive
8,S=c1nc(-c2cccc(Cl)c2)[nH][nH]1,"inconclusive [inhibitor, partial curve]"
9,CCc1nnc(NS(=O)(=O)c2ccc(NC(=O)/C=C/c3ccc(OC)cc3OC)cc2)s1,"inconclusive [inhibitor, single point]"
10,O=C(Nc1nccs1)C(c1ccccc1)N1CCCC1 (stereo not given),inactive
11,CC(=O)N[C@@H](C)C(=O)OC(C)C(=O)Nc1cccc([N+](=O)[O-])c1 (stereo not given in full),inactive
12,CC1CCN(C(=S)NC(=O)c2cccs2)CC1,"inconclusive [inhibitor, single point]"
13,O=C(Cc1ccc(Cl)cc1)Nc1ccc(-c2cc3ccccc3oc2=O)c(Cl)c1,"inconclusive [inhibitor, partial curve]"
14,CCOC(=O)c1cnc2ccc(C)cc2c1Sc1ccccc1C(=O)OC,"inconclusive [inhibitor, partial curve]"
15,O=C(NCC1CCCO1)C1CCC(CNS(=O)(=O)c2ccccc2)CC1 (stereo not given),active: 14.1 µM
16,CC1=C(C(=O)OC(C)C)C(c2cccnc2)C2=C(CC(C)(C)CC2=O)N1 (stereo not given),"inconclusive [inhibitor, partial curve]"
17,COc1ccc(NC(=O)CN2CCN(CC(=O)Nc3ccccc3Cl)CC2)cc1Cl,"inconclusive [inhibitor, single point]"
18,CCCN1C(=O)SC(CC(=O)Nc2cccc3ccccc23)C1=O (stereo not given),active: 22.4 µM
19,Brc1cccc2sc(N3CCCC3)nc12,inactive
20,CCCNC(=O)OC[C@H]1O[C@@H](CCO/N=C\[C@@H](NS(=O)(=O)c2ccc(C)cc2)[C@H](C)/C=C\CC(=O)OC)C=C[C@@H]1Oc1ccc(OC)cc1,"inconclusive [inhibitor, single point]"
21,Cc1ccc(C)c2[nH]c(=O)c(CCNC(=O)c3cccs3)cc12,"inconclusive [inhibitor, single point]"
22,O=C1CCCN1CCC1CCN(C(=O)Nc2ccccc2)CC1,"inconclusive [inhibitor, single point]"
23,Cc1ccc(NC(=S)NCc2cccn2C)cc1,inactive
24,CCOC(=O)c1ccc(-n2ncc(C(=O)OCC)c2N)cc1,"inconclusive [inhibitor, partial curve]"
25,S=C(NCc1ccc(Cl)cc1Cl)Nc1ccccc1,"inconclusive [inhibitor, partial curve]"

row,SMILES,Potency
1,CC(C)(C)N=C1SCC(C)(/C=N/O)S1 (stereo not given),"inconclusive [inhibitor, single point]"
2,COc1ccc(-n2nnnc2-c2nc3ccccc3s2)cc1,"inconclusive [inhibitor, partial curve]"
3,COc1ccc2c(c1)C(c1ccccc1OC)CC(=O)O2 (stereo not given),"inconclusive [inhibitor, single point]"
4,COC(=O)c1cc2ccccc2c(=O)s1,"inconclusive [inhibitor, single point]"
5,Cc1ccc(-c2nn(-c3ccccc3)cc2C(=O)O)o1,"inconclusive [inhibitor, partial curve]"
6,COc1ccccc1-c1nnc(NC(=O)C2=COCCO2)o1,inactive
7,Cc1nc2c(oc3ccccc32)c(=O)o1,"inconclusive [inhibitor, single point]"
8,CS(=O)(=O)N(CC(=O)NCCSc1ccccc1)c1ccc2c(c1)OCO2,"inconclusive [inhibitor, partial curve, poor fit]"
9,COc1ccc(-c2coc3cc(O)ccc3c2=O)c(OC)c1,"inconclusive [inhibitor, single point]"
10,CCc1c(C)nc2ncnn2c1NCCc1ccccc1,inactive
11,CCCSc1nc(C)c2cc(C)cc(C)c2n1,"inconclusive [inhibitor, single point]"
12,CCOC(=O)N1CCC(N2C(=O)c3ccc(C(=O)NCc4ccco4)cc3C2=O)CC1,active: 11.9 µM
13,CCC(C)C(=O)Nc1nc(C)c(-c2csc(Nc3cc(Cl)ccc3OC)n2)s1 (stereo not given),"inconclusive [inhibitor, single point]"
14,Cc1ccc(C)c(N2CCN(CCCNC(=O)Cn3cc4c(n3)CCC(C)C4)CC2)c1 (stereo not given),inactive
15,Cc1cc2c3c(ccc(C)c3n1)N=CN2c1ccccc1,"inconclusive [inhibitor, single point]"
16,O=C1c2cccc3cccc(c23)C(=O)N1c1ccccn1,"inconclusive [inhibitor, partial curve]"
17,O=C(Nc1ccc2c(c1)OCO2)c1ccc(N2C(=O)c3ccccc3C2=O)cc1,inactive
18,CCc1cccc(NC2c3ccccc3C(=O)N2c2cccnc2)c1 (stereo not given),"inconclusive [inhibitor, partial curve]"
19,Cc1ccc(OC(C)C)c(CN(CCO)CCO)c1,inactive
20,O=S(=O)(c1ccc(F)cc1)c1snnc1-c1ccccc1,"inconclusive [inhibitor, single point]"
21,CCCCNCCOCCOc1ccccc1-c1ccccc1,"inconclusive [inhibitor, single point]"
22,N#Cc1ccc(OCCOCCNC2CCCC2)cc1,inactive
23,CCOC(=O)c1ccc(S(=O)(=O)N2CCN(C)CC2)cc1,inactive
24,CN1CCN(Cc2ccc(-c3ccc(Cl)cc3)o2)CC1,"inconclusive [inhibitor, single point]"
25,COc1cc(/C=C2\S/C(=N/S(=O)(=O)c3ccc(C)cc3)NC2=O)c([N+](=O)[O-])cc1OC,"inconclusive [inhibitor, partial curve]"
